Experimental findings from PubChem BioAssay AID488969 (Vanderbilt High Throughput Screening Facility, 2010) are described below.

The structures appear in SMILES notation. Whole data set: some 110,000 compounds, median “z-score” near -0.1, cut for the highest 2% near 2. Some of the results follow.

For the test, the target named is Metabotropic glutamate receptor 8 (Rattus norvegicus) (UniProt P70579). Nature of the test: mGluR8 Gi/Go-coupled signaling modulation – cell-based, rat, thallium flux, HTS, primary screen (AID 488969). Particulars: HEK293 rat mGluR8, GIRK (G protein-gated inwardly rectifying potassium channel) thallium flux, FluoZin2; at 10 µM; stronger effect = higher value; submaximal glutamate (EC20) added with thallium.
Chain of UniProt P70579 (P70579 whole entry, looked up): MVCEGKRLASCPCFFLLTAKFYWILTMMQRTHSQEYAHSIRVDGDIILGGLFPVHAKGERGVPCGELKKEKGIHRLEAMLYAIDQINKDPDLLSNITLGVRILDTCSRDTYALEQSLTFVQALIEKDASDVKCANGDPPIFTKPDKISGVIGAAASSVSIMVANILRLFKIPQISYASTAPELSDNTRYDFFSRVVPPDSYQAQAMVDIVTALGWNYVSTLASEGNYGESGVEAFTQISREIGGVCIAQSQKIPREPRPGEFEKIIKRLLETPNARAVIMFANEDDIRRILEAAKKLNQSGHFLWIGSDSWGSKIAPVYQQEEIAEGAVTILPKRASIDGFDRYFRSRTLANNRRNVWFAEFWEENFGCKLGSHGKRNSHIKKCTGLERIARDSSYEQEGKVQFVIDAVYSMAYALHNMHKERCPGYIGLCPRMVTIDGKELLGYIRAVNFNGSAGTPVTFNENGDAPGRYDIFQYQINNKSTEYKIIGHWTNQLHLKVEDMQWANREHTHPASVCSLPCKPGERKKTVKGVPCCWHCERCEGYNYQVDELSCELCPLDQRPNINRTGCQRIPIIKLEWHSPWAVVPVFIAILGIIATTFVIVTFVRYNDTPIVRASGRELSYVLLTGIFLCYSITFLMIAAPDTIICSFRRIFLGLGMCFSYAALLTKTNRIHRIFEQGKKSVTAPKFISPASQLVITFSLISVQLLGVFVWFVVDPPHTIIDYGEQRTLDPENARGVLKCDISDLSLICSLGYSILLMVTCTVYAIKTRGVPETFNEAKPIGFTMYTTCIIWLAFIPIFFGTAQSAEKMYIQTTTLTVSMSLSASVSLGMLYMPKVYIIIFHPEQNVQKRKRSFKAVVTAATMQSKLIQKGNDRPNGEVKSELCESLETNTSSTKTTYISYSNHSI
Consider `CCOC(=O)N1CCN(C(=O)c2cnn3ccccc23)CC1`, for which the z-score stood at 1.04. Under `CCOC(=O)N1CCN(C(=O)CSCC(=O)Nc2nc(-c3ccc(-c4ccccc4)cc3)cs2)CC1` stands 0.857; under `O=C(COc1ccccc1)OCc1csc(Nc2ccccc2)n1`, -0.693. Under `O=C(O)c1cc(-c2ccc(/C=N/Nc3ccc(Cl)cc3)o2)ccc1Cl` stands -0.411; under `CCOC(=O)C1=NN(C(C)=O)C2(CC(=O)N(c3ccc(C)c(C)c3)C2=O)C1` (configuration not stated), -0.283. Under `O=C(CCCC(=O)N(CC(=O)NC1CCCC1)C1CCCC1)Nc1ccccn1` stands -0.645; under `CN(C(=O)COc1cc(=O)n(C)c2ccccc12)c1cccc(Cl)c1`, 0.0211. `COC(=O)NC1(C(F)(F)F)NC(=O)N(C2CCCCC2)C1=O` (configuration not stated) gave a z-score of 0.322. Under `Cc1nc(NCc2ccco2)[nH]c(=O)c1CCC(C)C` stands -1.06; under `CCC(CO)Nc1ncnc2c1cnn2-c1ccc(Cl)cc1` (configuration not stated), -0.11; under `c1ccc2c(c1)CCN(CCCNc1nc3ccccc3n3cnnc13)C2`, -0.0711. Under `CCc1nc(NCC2CCCN2CC)c2nnn(Cc3ccccc3F)c2n1` (configuration not stated) stands -0.244; under `CCSc1nc(-c2ccc(OC)cc2)cc(-c2ccccc2)c1C#N`, -0.152; under `Cn1c(CN2CCN(c3cccc(Cl)c3)CC2)nc2ccccc21`, 0.249.

Turning to `C=CCn1c(SCCC)nc(O)cc1=O`, the z-score is -0.404. The figure for `Cc1cccc(C2CC(c3ccc(Cl)cc3)Nc3nc(N)nn32)c1` (configuration not stated) is 1.02.

As to `O=C(CCCn1c(=O)[nH]c2cc(Cl)ccc2c1=O)NCCCN1CCCC1`, the z-score is -0.393. The figure for `O=[N+]([O-])c1ccc(N2CCN(c3ccc(Cl)nn3)CC2)cc1NC1CC1` is 1.09. The figure for `Nc1ncc(-c2nnnn2-c2ccc(Cl)cc2)c(-c2ccc(Cl)cc2)n1` is -0.0921; for `Cc1nc2c3ccccc3nc(NNC(=O)CCC(=O)NCCC(C)C)n2n1` it is -0.402. For `Cc1cc(-c2n[nH]c(=S)n2/N=C/c2sccc2C)n[nH]1`, the z-score was -0.362. In the case of `O=C(CSCc1ccc(F)cc1)N1CCN(c2ccc(F)cc2)CC1`, the z-score was -0.0878. Under `C/C(=N/NC(=O)c1cccs1)c1cccc(NC(=O)C2CC2)c1` stands -0.143; under `COc1ccc(CN(Cc2cc3cc(OC)c(OC)cc3[nH]c2=O)C(=O)NC2CCCCC2)cc1`, -0.423; under `CCOCC(=O)N1CCc2ccccc21`, -0.157. Under `O=C(Nc1ccc(-c2nnco2)cc1)c1ccccc1` stands -0.324; under `COC(=O)/C(=N/Nc1ccccc1C)N1CCCc2ccccc21`, -0.158. In the case of `O=c1[nH]c(NC2CCCCC2)nnc1Cc1ccccc1`, the z-score was -0.656. The figure for `COCC(=O)Nc1cc(OC)cc(OC)c1` is -0.0538. In the case of `Cc1cc(NC(=O)CSc2nnc(-c3cccnc3)n2N)no1`, the z-score was -0.404. Under `CCC(C)NC(=S)N1CCN(C(c2ccccc2)c2ccccc2)CC1` (configuration not stated) stands -0.112; under `Cc1ncsc1CCOC(=O)C12CC3CC(CC(C3)C1)C2`, -0.15. Under `CCOC(=O)c1c(NC(=O)CCC(=O)N2CCOCC2)sc2c1CC(C)(C)OC2` stands -0.0738; under `CN(c1cccc(Cl)c1)S(=O)(=O)c1cccc(C(=O)Nc2nc3ccccc3[nH]2)c1`, -0.0848; under `COc1ccccc1N1CCN(S(=O)(=O)c2ccc3c4c(cccc24)C(=O)N3C)CC1`, -0.292. Under `CCn1nnc(NC(=O)c2cccnc2Cl)n1` stands -0.48; under `Cc1ccccc1-c1nsc(SCC(=O)Nc2ccc3c(c2)OCO3)n1`, -0.254. `C/C=C(\C)C(=O)OC1c2c(ccc3ccc(=O)oc23)OC(C)(C)C1OC(C)=O` (configuration not stated) came in with a z-score of -0.329. In turn, `Nc1ccc(-c2nc3ccccc3[nH]2)cc1` returned a z-score of 1.29.

`Cc1nc(NC(=O)CSc2ccc(-c3nc4ccccc4[nH]3)cn2)sc1C`: the z-score was -0.0534. Under `Cc1ccc(Nc2nc(-c3sc(NC(=O)c4ccccc4)nc3C)cs2)cc1` stands -0.0244; under `Cc1ccc(NC(=O)/C(C#N)=C/c2ccc(Sc3nc(C)cc(C)n3)o2)cc1`, -0.1; under `COc1ccc(-c2nnc(SCc3nc4ccccc4s3)n2C(C)C)cc1`, -1.13. The figure for `CCCn1c(N2CCN(Cc3cccc(C)c3)CC2)nc2c1c(=O)[nH]c(=O)n2C` is -0.0878. Under `O=c1cc(CSc2nnc(-c3ccccc3)o2)c2ccccc2[nH]1` stands 0.487; under `CC1CCN(c2nc3c(c(=O)n(C)c(=O)n3C)n2CCSc2nc3ccccc3o2)CC1`, -0.456.

`Cc1ccc(C(C)C)cc1OCC(=O)N/N=C/c1ccc2c(c1)OCCO2` displayed a z-score of -0.0651. The figure for `CN(C)c1ccc(C(c2nnnn2C(C)(C)C)N2CCN(C(=O)c3ccco3)CC2)cc1` (configuration not stated) is 0.29; for `OC(CNCc1ccco1)COc1ccccc1` (configuration not stated) it is 0.624; for `Cc1nnc(SCc2ccccc2)n(N)c1=O` it is 0.09. The figure for `CCN(CC)C(=O)CSc1nnc(-c2ccco2)o1` is 0.153.

The compound `CCOC(=O)CN1CC23C=CC(O2)C(C(=O)Nc2ccc(C(C)=O)cc2)C3C1=O` (configuration not stated) returned a z-score of -0.322. Take `CSc1ccccc1C(=O)NCCSC(C)(C)C`: the z-score was 0.626. For the compound `O=C(NCCCN1CCCC1=O)c1ccc2c(=O)n(Cc3ccco3)c(=S)[nH]c2c1`, the z-score was -0.215. The figure for `Clc1cccc(Cl)c1COc1ccncc1` is -0.502; for `COc1ccccc1-c1nc(-c2ccncc2)no1` it is 0.393. The figure for `O=C(NC1CCCCC1)c1sc(N2CCOCC2)nc1-c1ccccc1` is 0.0133. Under `CSC(=NS(=O)(=O)c1ccc(C)cc1)SC` stands -0.53; under `Cc1cccc2cc(CN(Cc3ccc(F)cc3)C(=O)N3CCOCC3)c(=O)[nH]c12`, -0.501.

On to `Cc1cccc(NS(=O)(=O)c2ccc(Br)s2)n1`, for which the z-score is -0.0972. `c1ccc(-c2cc3ccccc3nc2N2CCCC2)cc1` returned a z-score of -0.0621.

As to `COCC(C)n1c(SCC(=O)N2CCc3ccccc3C2)nc2ccccc2c1=O` (configuration not stated), the z-score was -1.25. Take `S=c1[nH]nc(-c2ccco2)n1/N=C/c1ccccc1Cl`: the z-score is 1.07. The figure for `Cc1ccc(C(=O)N2CCN(c3ncnc4c3cnn4-c3ccccc3)CC2)cc1` is -0.196. Under `O=C(COC(=O)c1oc2ccccc2c1COc1ccccc1)NCCN1C(=O)CSC1=O` stands -0.387; under `COC(=O)c1oc2c(c1C)C1(CCC2)SCCS1`, 0.0947.

`CC1(C)Cc2noc(N)c2C(C)(C)N1OC(=O)c1ccco1` yielded a z-score of 0.14. The figure for `CCN(CC)c1ccc(NC(=O)c2cccc(C)c2)cc1S(=O)(=O)Nc1ccccc1OC` is -0.0661; for `COc1ccc(C(C#N)N2N=C(C)CC2(C)C)cc1` (configuration not stated) it is 0.173.

In the case of `CN(C(=O)c1cc(-n2cnnc2)ccc1Cl)c1ccccc1`, the z-score was -0.0695. Under `CCCC(=O)Nc1cc(Cl)ccc1N1CCN(C(=O)CC)CC1` stands -1.7; under `O=C(Nc1cccc(C(=O)N2CCN(Cc3ccccc3)CC2)c1)c1ccccc1`, -0.0123.
